The campaign covered roughly 330,000 compounds. About 300 (0.091%) were called active. Inconclusive results, whose numbers are uncertain, are shown with a selection of clear calls. The call rests on the fitted dose curve; in most records, active means well fitted inhibition curve with a large enough effect; inconclusive means small, poorly fitted or top-dose-only effect, or effect the other way, or another doubt; inactive means no such curve, though single readings can be large or run the other way. Potencies of inconclusive entries are left out as doubtful fits.
The compounds below were run against Lysosomal acid glucosylceramidase (Homo sapiens) (UniProt P04062) (assay: qHTS Assay for Inhibitors and Activators of N370S glucocerebrosidase as a Potential Chaperone Treatment of Gaucher Disease). Settings: N370S GC spleen homogenate, 4MU-glucoside fluorescence; activity change, negative = inhibition: at 59.4 µM (top of the series) unless noted.
Potency means the concentration at half of the fitted maximal effect.
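Wherever activity change, negative = inhibition is given: 0% = full enzyme activity and -100% = no enzyme basal.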

Row | Compound | activity change, negative = inhibition | Potency
1 | O=C(O)CCC(=O)Nc1ccccc1C(=O)Nc1ccccc1 | inconclusive: 30.8% [activator] | –
2 | COc1cc(C(C)=O)ccc1OCC(=O)Nc1ccccc1N1CCCC1 | – | inconclusive [activator, single point]
3 | CCCNC(=S)Nc1ccc(Nc2ccccc2)cc1 | – | inactive
4 | COc1ccc(S(=O)(=O)N2CCC(C(=O)NCC3CCCO3)CC2)cc1 (stereo not given) | inconclusive: 26.7% [activator] | –
5 | COc1cccc(NC(=O)CN(C)C(=O)/C=C/c2cc(OC)ccc2OC)c1 | – | inconclusive [activator, single point]
6 | O=C(Oc1ccc2ccc(=O)oc2c1)C1CCCCC1 | – | inconclusive [activator, partial curve]
7 | COC(=O)c1ccc(COC(=O)CCC(=O)c2cccs2)cc1 | – | inactive
8 | CCN(CC)Cc1c(CC(C)C)oc(C)c1C(=O)O | – | inconclusive [inhibitor, partial curve]
9 | CC(NC(=O)c1cccc(S(=O)(=O)N2CCN(Cc3ccccc3)CC2)c1)c1ccc(Cl)cc1 (stereo not given) | – | inconclusive [inhibitor, partial curve]
10 | Cc1ccc2[nH]c3ccccc3c(=O)c2c1 | – | inconclusive [activator, partial curve]
11 | CCCn1nc(NC(=O)c2ccco2)c2cc3cc(C)ccc3nc21 | – | inactive
12 | COc1ccc(C2c3sc(=O)[nH]c3SC3C4CCC(C4)C23)cc1 (stereo not given) | – | inconclusive [activator, partial curve, poor fit]
13 | O=C(NCc1cccs1)c1cnc2ccccn2c1=O | – | inactive
14 | CCCN(CC(=O)Nc1ccc(Cl)cc1Cl)C(=O)/C=C/c1cc(OC)ccc1OC | – | inconclusive [activator, partial curve]
15 | COC(=O)c1ccccc1NC(=O)c1cnn2c(C)cc(C)nc12 | – | inconclusive [activator, single point]
16 | CNc1nc(-c2ccccc2)cc(-c2ccccc2)n1 | – | inconclusive [activator, single point]
17 | O=C(NCc1ccccc1Cl)c1ccc2ccccc2n1 | – | inconclusive [activator, single point]
18 | C=CCc1c(C)c(C#N)c2nc3ccccc3n2c1N1CCCCC1 | – | inconclusive [activator, full curve]
19 | CCOc1ccc(S(=O)(=O)NCc2ccc(Cl)cc2)c2cccnc12 | – | inactive
20 | CCOC(=O)c1c(NC(=O)CSc2ccccc2C(=O)O)sc(C)c1C | – | inactive
21 | CCCOC(=O)C1=C(C)NC2=C(C(=O)CCC2)C1c1cccc(OC)c1OC (stereo not given) | inconclusive: 28.7% [activator] | –
22 | CC(=O)c1ccc(NS(=O)(=O)c2ccc(N)cc2)cc1 | inconclusive: 27% [activator] | –
23 | CC1CCN(c2cc(N)c(Cl)cc2[N+](=O)[O-])CC1 | – | inconclusive [activator, partial curve]

Row | Compound | activity change, negative = inhibition | Potency
24 | COC(=O)C/C=C\[C@@H](C)[C@@H]1C=C[C@H](OC(C)=O)[C@H](COC(C)=O)O1 | inactive: -1.5% [at 12.8 µM] | –
25 | Cc1oc(-c2ccccc2Cl)nc1CSc1nc2c(c(=O)[nH]1)CCCC2 | – | inconclusive [activator, partial curve]
26 | COc1ccccc1CNC(=O)COc1ccc2c(c1)CCC2 | – | inconclusive [activator, partial curve]
27 | Cc1ccccc1OCCC(=O)Nc1ccc2c(C)cc(=O)oc2c1 | – | inconclusive [activator, single point]
28 | Cc1ccc(OCc2cc(C(=O)Nc3ccccc3)oc2C)cc1 | – | inconclusive [activator, partial curve]
29 | COc1ccc(-c2nc3c4ccccc4[nH]c(=O)n3n2)cc1 | – | inconclusive [activator, single point]
30 | Cc1cccc(NC(=O)C2CCCN(C(=O)Nc3ccccc3)C2)c1C (stereo not given) | – | inactive
31 | Nc1nc2ccccc2n1CCOc1ccc(Br)cc1 | – | inconclusive [inhibitor, partial curve]
32 | COc1ccccc1C1CC(=O)Nc2cc3c(cc21)OCCO3 (stereo not given) | – | inactive
33 | C#CCOCCOCCOCCNc1nc(N2CCN(C(=O)[C@H](Cc3cc4ccccc4[nH]3)n3cc([C@@H](N)CC(C)C)nn3)CC2)nc(N2CCN(C(=O)[C@H](Cc3cc4ccccc4[nH]3)n3cc([C@@H](N)CC(C)C)nn3)CC2)n1 | – | inconclusive [inhibitor, single point]
34 | O=C(/C=C/c1ccccn1)c1ccc(Br)cc1O | – | inconclusive [activator, partial curve]
35 | COc1ccc(CNC(=O)c2[nH]c(C)c(C(C)=O)c2C)cc1 | – | inactive
36 | COc1ccc(-c2c(O)c3c(OC)c4c(cc3oc2=O)OC(C)(C)C=C4)cc1 | – | inconclusive [activator, full curve]
37 | CC1CN(c2oc(Cc3cccc4ccccc34)nc2C#N)CC(C)O1 (stereo not given) | – | inconclusive [activator, partial curve]
38 | CSc1cccc(NC(=O)C2CCCN2S(=O)(=O)c2ccc3c(c2)CCC(=O)N3)c1 (stereo not given) | – | inconclusive [inhibitor, single point]
39 | Cc1cc(C)cc(Nc2nc3c([nH]2)c(=O)n(C)c(=O)n3C)c1 | – | inactive
40 | CCOC(=O)c1c(C)oc2c1c1c(c3ccccc32)OCN(Cc2cccnc2)C1 | – | inactive
41 | CCOc1ccc(NC(=S)N(CCCN2CCCC2)Cc2cccn2Cc2ccc(Cl)cc2)cc1 | – | inconclusive [inhibitor, single point]
42 | O=C(c1ccccc1)c1cc(Cl)ccc1N1C(=O)C=CC1=O | – | inactive
43 | O=C(N/N=C/c1cccnc1)c1cc(-c2ccccc2OCc2ccccc2)n[nH]1 | – | inconclusive [inhibitor, single point]
44 | CCCC(=O)N1CCc2cc(-c3nc(N)sc3C)ccc21 | – | inconclusive [activator, single point]
45 | Cc1oc(-c2ccccc2)nc1Cn1cccc1C1=NC(c2ccccc2)CO1 (stereo not given) | – | inconclusive [activator, single point]

From PubChem BioAssay AID2101 (National Center for Advancing Translational Sciences (NCATS), 2009)
